Among the data in patent US20160130315A1 (AJOU UNIVERSITY INDUSTRY ACADEMIC COOPERATION FOUNDATION, published 2016) are Kd, koff and kon values, retold here.

First the molecules themselves.
T1: b1b2 domains (275-595) of neuropilin-2 (UniProt O60462 275-595)
T1 construct: range 275-595; Purified soluble domain; also called NRP2-b1b2; NRP-2 b1b2
T1 sequence (looked up): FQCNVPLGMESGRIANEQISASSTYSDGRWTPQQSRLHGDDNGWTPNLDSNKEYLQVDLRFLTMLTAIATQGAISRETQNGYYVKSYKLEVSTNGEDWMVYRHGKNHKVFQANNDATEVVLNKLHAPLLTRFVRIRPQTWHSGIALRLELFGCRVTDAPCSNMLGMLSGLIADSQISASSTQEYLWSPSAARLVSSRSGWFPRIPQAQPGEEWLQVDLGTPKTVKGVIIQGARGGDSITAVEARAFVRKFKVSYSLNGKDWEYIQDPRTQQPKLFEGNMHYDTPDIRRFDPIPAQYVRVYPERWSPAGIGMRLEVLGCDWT

B1: Fc-4A22 (Fc fusion, human)
chain: [sequence of human IgG1 Fc not given]GAGAHTPGNSNKWKHLQENKKGRNRR
notes: domain: Fc (hinge-CH2-CH3); Disulfide-linked dimer; Biotinylated in the ELISA; also called 4A22 fused to Fc
B2: Fc-15A22 (Fc fusion, human)
chain: [sequence of human IgG1 Fc not given]GGGGSGGGGSGGGGSHTPGNSNKWKHLQENKKGRNRR
notes: domain: Fc (hinge-CH2-CH3); Disulfide-linked dimer; Biotinylated in the ELISA; also called 15A22 fused to Fc
B3: Fc-4F22 (Fc fusion, human)
chain: [sequence of human IgG1 Fc not given]GAGAREAPGAPRSPEPQDQKKPRNRR
notes: domain: Fc (hinge-CH2-CH3); Disulfide-linked dimer; Biotinylated in the ELISA; also called 4F22 fused to Fc
B4: Fc-15F22 (Fc fusion, human)
chain: [sequence of human IgG1 Fc not given]GGGGSGGGGSGGGGSREAPGAPRSPEPQDQKKPRNRR
notes: domain: Fc (hinge-CH2-CH3); Disulfide-linked dimer; also called 15F22 fused to Fc
B5: Fc-15F22p (Fc fusion, human)
chain: [sequence of human IgG1 Fc not given]GGGGSGGGGSGGGGSREAPGAPRSPEPQDQKKPRPRR
notes: domain: Fc (hinge-CH2-CH3); Disulfide-linked dimer; Biotinylated in the ELISA; also called Fc-F22p

The first assay has as its target T1, b1b2 domains (275-595) of neuropilin-2. Nature of the assay: SPR Biacore 2000, NRP b1b2 on CM5 chip. How it is done:
(§1) Specifically, each b1b2 domain of neuropilin-1 and -2 was diluted with 10 mM Na-acetate buffer (pH 4.0), and fixed onto CM5 sensor chips (GE healthcare, USA) in about 1000 response units (RU). […] After bond and dissociation analysis, the regeneration of CM5 chip was performed by streaming a buffer (20 Mm NaOH, 1 M NaCl, pH 10.0) at a stream velocity 30 μl/min for 1 minute.
On the technique in general: In SPR one partner is held on a chip, and binding of the other changes the refractive index at the surface.
By Kd is commonly meant the constant that tells how readily two partners part at equilibrium. A low value points to tighter binding. Usually koff stands for the first-order rate constant of dissociation. A lower koff goes with slow dissociation. What is called kon is the rate constant with which the complex forms. A low value points to slower complex formation. As to B1, binding was characterised by a dissociation constant (Kd) of 20.2 µM, the koff was 0.123 s⁻¹ and the kon turned out to be 6090 M⁻¹ s⁻¹.
In the same order, the values of B2 are 9.8 µM, 0.0387 s⁻¹ and 3940 M⁻¹ s⁻¹.
The matching figures for B3: 13 µM, 0.00157 s⁻¹ and 121 M⁻¹ s⁻¹.
B4 came in with a dissociation constant (Kd) of 12.4 µM and an off-rate constant (koff) of 0.013 s⁻¹.
In turn, B5 had an equilibrium dissociation constant (Kd) of 0.0924 µM, a koff of 0.00123 s⁻¹ and an on-rate (kon) of 13400 M⁻¹ s⁻¹.

The next assay has as its target T2, b1b2 domains (273-586) of neuropilin-1 (UniProt O14786 273-586).
T2 construct: range 273-586; Purified soluble domain; No tag described; also called NRP1-b1b2; NRP-1 b1b2
T2 sequence (O14786 273-586 limits assumed, form in doubt): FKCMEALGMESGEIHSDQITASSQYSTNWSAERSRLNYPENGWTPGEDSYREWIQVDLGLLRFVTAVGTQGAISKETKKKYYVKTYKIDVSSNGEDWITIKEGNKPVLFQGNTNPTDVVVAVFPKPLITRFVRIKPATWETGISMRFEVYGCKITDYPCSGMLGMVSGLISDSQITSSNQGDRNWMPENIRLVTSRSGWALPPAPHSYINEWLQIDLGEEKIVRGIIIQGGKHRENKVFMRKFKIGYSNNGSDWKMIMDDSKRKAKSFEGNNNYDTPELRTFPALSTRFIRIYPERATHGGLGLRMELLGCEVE
The experiment in a line: SPR Biacore 2000, NRP b1b2 on CM5 chip. The method, then: as §1
As for B1, binding was put at a Kd of 18 µM and the koff is 0.0193 s⁻¹.
Molecule B2 showed a Kd of 6.06 µM, an off-rate constant (koff) of 0.0295 s⁻¹ and a kon of 4860 M⁻¹ s⁻¹.
Consider B3, for which binding was characterised by a dissociation constant (Kd) of 10.3 µM, the off-rate constant (koff) was 0.00225 s⁻¹ and the association rate constant (kon) is 218 M⁻¹ s⁻¹.
Take B4: the affinity, expressed as Kd, was 39.7 µM; the off-rate (koff) is 0.0534 s⁻¹; the kon turned out to be 1350 M⁻¹ s⁻¹.
Turning to B5, binding was put at a Kd of 0.0797 µM, the koff is 0.00138 s⁻¹ and the kon amounted to 17300 M⁻¹ s⁻¹.
